Measurements reported in PMC6212790.
The other results are listed elsewhere or left out. At the low end of the ranking, values are background and their order means little.

Molecular target: T1, GST-Rok (full length) (UniProt O34857)
T1 sequence: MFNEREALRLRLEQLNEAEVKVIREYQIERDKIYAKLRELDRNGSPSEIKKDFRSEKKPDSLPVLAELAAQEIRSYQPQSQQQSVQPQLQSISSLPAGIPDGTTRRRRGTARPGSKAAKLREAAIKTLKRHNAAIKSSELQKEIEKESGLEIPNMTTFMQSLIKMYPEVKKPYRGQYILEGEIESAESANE
Assay: protein binding microarray;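 also: rank score from −0.5 (least bound) to 0.5 (best bound)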
Details: Rok is a gene silencer of Bacillus subtilis; high values mean tight binding; most listed sequences are background and not binding sites; double strand, one strand shown

Sequence	binding signal [E-score]
ATCGAATG	0.094
CTCTTCAC	-0.113
CTATTCCA	0.165
ATGACCGC	-0.193
CAACTTCG	-0.00652
ATAAAACC	0.242
ACTCGTTC	0.0843
GACTCCAA	-0.0812
ACAACAAA	0.0529
GAGTGCGA	-0.104
ACCCGGGC	-0.403
AACCTTAC	0.0321
GCGATTAA	-0.124
GCTACAGA	0.101
CAAGGCAC	-0.288
GTGGCAGA	-0.113
ACCTGCAA	-0.346
CATGCCCA	-0.186
CGGTCGAA	-0.0538
CGAGTTTA	0.185
CACCCATG	-0.23
GAACTGAA	-0.118
AATTGATA	0.253
TATCTAAA	0.287
GTGTACAC	-0.0962

Sequence	binding signal [E-score]
CGCCGTTC	-0.15
ACTGTCCC	-0.17
CGTCGTTA	0.122
AACAACCT	-0.198
GTCGCTTA	-0.0639
GGCAAGAA	-0.0956
CGGAGATA	0.248
CTTCTTGC	-0.257
CGAGGCGC	-0.268
AGGGGAAC	-0.211
GTACCCCA	-0.278
GTGCCATA	0.075
AATGCTCC	-0.0721
ACCTATCG	0.161
AGGCGTGC	-0.13
GGCCTCAA	-0.352
AACCCGTC	-0.122
CTACAATC	0.214
CGCTCCCA	-0.389
AGGACGCC	-0.321
TACGCGAA	0.147
GAGTAAGC	0.134
AACTCGAG	0.176
CACATATA	0.261
CGTTCTAC	0.25

Sequence	binding signal [E-score]
GGACGAAA	-0.118
AGATGGCT	-0.166
CGCGCAAG	0.154
GTACCGAC	-0.0213
GGCAACGA	-0.0721
CACCTTAA	-0.045
CTCTACCC	-0.141
CGTAGGAG	-0.138
ACGTGGCC	-0.276
ATCGGAGC	-0.182
ATTTACGA	0.303
CGAAGTTA	0.168
AGCTAACA	0.0607
ATTCCAGG	-0.062
GATGTGCC	-0.185
CTCACACA	0.0158
AAGGTAGA	0.288
CAACACAC	0.0692
GACCCGAC	-0.277
AGTGGTCG	-0.261
ACCAAGCC	-0.214
ATTCATCG	0.0733
AATTGTGT	0.149
ACTTGTCG	-0.143
AGATTACC	-0.0495

Sequence	binding signal [E-score]
CCCACAAC	-0.247
GAGTCTTA	-0.0393
GATACTCA	0.00419
GTCGTACA	0.183
CTTCCGAA	-0.0894
GTGGACCA	-0.217
GGCATAGA	-0.0865
CTGTAATC	0.0182
CACGTCCG	-0.302
CGACAGCC	0.0764
ACTATCTG	0.134
CCTTGGGC	-0.228
AGCTGGTC	-0.13
ATCCTAGA	-0.0904
AACAGGTG	-0.0105
CGAAGACA	-0.193
ACCGCGGA	-0.0679
GACTTCTA	0.0634
AGTTGCGA	0.0582
TCCGAACA	0.0572
AAAGTACT	0.221
ACTTGTCC	-0.0505
CGGCACAA	-0.145
GTTCTCTA	0.24
ATCTGCTC	-0.0644

Sequence	binding signal [E-score]
GCCGATCC	-0.224
ACTGAGGA	-0.171
ACTTGCTA	0.157
GCAAGGAA	-0.153
CCTGTCGA	-0.105
CCCCATCG	-0.157
GGCTTACA	-0.132
TAGCATCA	-0.0631
ACTCCAAC	-0.233
ACATGAGT	0.0857
TACAGGCA	-0.087
AACTTCAT	0.0811
AAAAAGTT	0.0934
GACCATCA	-0.255
CCTTTCAC	-0.101
AGTATCCA	-0.00362
CCAATTAG	-0.0847
AGAATTAG	0.254
CAGTGGTC	-0.278
ACGCGGAA	-0.000711
AGGCATAG	-0.0501
CGTCTAGC	-0.127
GCGGTACC	-0.115
ATGCGGGA	-0.179
AACTCATC	-0.0758

Sequence	binding signal [E-score]
CTACGAGC	-0.192
TAAACAAA	0.0173
ACTGATAG	0.102
AAGCGCCG	-0.211
AATTTTTA	0.107
CCTTCGTA	-0.212
GGATCATA	0.0856
GTCGTCTA	-0.0289
AAGAAATC	0.0862
CATATGGA	-0.0847
ATGGGCTC	-0.191
TAACATGA	0.22
AGTTCCCC	-0.173
CACTTGTC	-0.0559
CCACATAA	0.108
GGAGCGCC	-0.341
ATGATGTC	-0.19
AAGCTGGT	-0.0627
CTGGTGAA	-0.118
AGTGCGTC	0.0828
CAGTTTGA	-0.0929
TAGCACCA	-0.0603
TACTCTGA	-0.0307
GCGGGAGA	-0.329
CCACCGAA	-0.0512

Sequence	binding signal [E-score]
ACTGGACG	0.057
CGCTGGCA	-0.119
AGCTGGTA	0.223
CCTTACAA	0.0477
GATTTGGA	0.0296
CCTGGCAG	-0.232
AGTTTTTA	0.131
ATCAGTTC	0.12
GTATCTAA	0.285
ATGTGAGG	-0.143
AAGGGGGC	-0.327
ACAGTATG	0.101
ACAATTAT	0.294
AGTCTCGG	-0.0699
ACAACTAT	0.33
AGTTTCAG	0.0509
GCTGCCAA	-0.067
CTAGAACC	0.0686
AGACGACA	-0.192
CAGGAGGC	-0.387
AGATTTCA	0.0391
ATGGCGTG	-0.208
